Measured values as given in the RNAGym collection of RNA variant scans (doi:10.7554/elife.90254).
Read counts are not given, so values of variants with three or more changes are uncertain.

B1: LINE1-mini (parent)
chain: GGCAGAGCUCAACACAGCGUGGCAAAGUGGCUGUGGCUAGACUGCC

Variants of: B1
Assay: self-cleavage, relative activity (ratio to wild type); higher = more cleavage; in vitro, sequencing; the parent is a self-cleaving ribozyme

Row | Variant | self-cleavage
1 | G21A G35U G44U C45A | 0.15
2 | G21U A24C G27U G33U U43C | 0.03
3 | G21U G30A C31U | 0.1
4 | G21U G30A C31G | 0.19
5 | G21U G29U G44A | 0.25
6 | G22C A26U A39G | 0.02
7 | G21C C23U A24U C42U | 0.12
8 | G21U C31A C42G | 0.05
9 | G21C G29U U43A | 0.08
10 | G21A G36U C42A | 0.11
11 | G22A A25G G36C A41U U43C | 0.01
12 | G22A U34A G36A C46U | 0.03
13 | G21U A41U U43A G44U | 0.04
14 | G21U G35C A41U | 0.31
15 | G21A U32A C37G | 0.03
16 | G21C G22A U38C | 0.59
17 | G21U C23U A24U A25G | 0.06
18 | G22A C42A C46U | 0.02
19 | G21U G29U C31A U38G | 0.01
20 | G21U G35U U38G G40U C42A G44U | 0.05
21 | G21A G33C A39U C46U | 0.05
22 | G21U U32G C45G | 0.02
23 | G21U A26G G27U | 0.34
24 | G21C C23A A24C A25U | 0.06

Row | Variant | self-cleavage
25 | G21U G27A G44U | 0.19
26 | G21C U28C C37A G44U | 0.05
27 | G22A U28G C45G | 0.47
28 | G21C G22U U28G G30U G44U | 0.17
29 | G21A G33C G36C | 0.06
30 | G22C A26U G36C U43G | 0
31 | G21U G22A U34G | 0.33
32 | G21U U28C G35U C37G | 0.01
33 | G22A G33U C37A | 1.89
34 | G22A A24G C31G G40C G44C | 0.1
35 | G21U G35U C42U C45A | 0.09
36 | G21U A39U A41C | 0.08
37 | G22A A24C C46A | 0.34
38 | G21U A25C G29C A39U | 0.13
39 | G22A G27C C45U | 0.17
40 | G21U A24C U28C G30U | 0.12
41 | G22A A24G G44U | 0.24
42 | G22A G27C C31G | 0.04
43 | G21U G36A A39U | 0.2
44 | G22A G29U C31A C37U U43G C45U | 0.16
45 | G22A C23G U38G | 0.03
46 | G21U A26U G29U | 1.02
47 | G22A U28C G40U | 0.03
48 | G21U C23G C46G | 1.82

Row | Variant | self-cleavage
49 | G21C A24U U28G G29U G44A | 0.01
50 | G22A G35A A41C U43A | 0.02
51 | G22A U28A G29A G30C C31A | 0.98
52 | G22A G30A U32A U38A | 0.42
53 | G22A G29U C31A U38C | 0.38
54 | G21U A26G C31A | 0.16
55 | G22A U28A G35U | 0.03
56 | G21A U28A G33U A39G | 0.18
57 | G22A A24C G40U | 0.5
58 | G21U A26C C31G U32G | 0.11
59 | G21C G35A A41C | 0.05
60 | G21U G33C C45A C46U | 0.05
61 | G21U A26G C37G | 0
62 | G21C G22A C37U | 0.08
63 | G21A G30U C31A C37A C42G C46G | 0.02
64 | G22C C31A G40A | 0.03
65 | G21U G30A G36U | 0.02
66 | G22A U38G C42A | 0.03
67 | G21C G22A C37U U38C C42U | 0.01
68 | G21U G33U G36C C46U | 0.07
69 | G22C G27A C31U G40U C46A | 0.02
70 | G21U G40A C42U | 0.17
71 | G21U C23G G30U | 0.11
72 | G22C C23A G36U A39U G40A | 0.09

Row | Variant | self-cleavage
73 | G21A G40C C42U | 0.21
74 | G22A G35C A39G U43G | 0.11
75 | G21U A39C C46U | 0.1
76 | G21U G30A U32G A39U | 0.07
77 | G21U A26G G27C U28C | 0.2
78 | G22A G33A C37U A41G | 0.07
79 | G21U G29C U43C | 0.02
80 | G22C A24C U38G | 0.02
81 | G21A G35C U43G | 0.03
82 | G22A C31G U32C | 0.56
83 | G21U C31A C46U | 0.45
84 | G21U C37G G44U | 0.07
85 | G21U G40C C45A | 0.47
86 | G21A G33C U38G | 0.05
87 | G22A U34G U38G | 0.03
88 | G21U U34C A41G C46G | 0.03
89 | G21U C42G C46G | 0.1
90 | G21C U28G G29A C46U | 0.33
91 | G22A G27U G30A G44A C46G | 0.06
92 | G22A U28A C31G G35A | 0.06
93 | G21U C31A C45A | 0.07
94 | G21U G22U A26U G27U G35U | 0.06
95 | G21U G33U C37G | 0.14
96 | G21U G33U C46U | 0.05

Row | Variant | self-cleavage
97 | G21A G30A G33U G36U | 0.04
98 | G21C G30U C37A U43A | 0.03
99 | G21C G27U U28C A41G | 0.34
100 | G22A G36U G44A C45G | 0.01
101 | G22A C23U U28A A41G | 0.15
102 | G21C G22U G36A | 0.04
103 | G21U C31U U34C | 0.05
104 | G21C C37G C42G | 0.02
105 | G21C G27A G35A | 0.14
106 | G21C A24G C37A | 0.06
107 | G21C C37U A39U G40A C46G | 0
108 | G21U U34G G40U | 0.27
109 | G22C A25G A41C C46A | 0.06
110 | G21C A24G G29U C37A | 0.02
111 | G21C C23U U28C | 1.17
112 | G22A C31G C37U | 0.03
113 | G22A U38G G44C | 0.02
114 | G22A C23A G44U | 0.12
115 | G21C C23A G29U C42G | 0.03
116 | G21C G29C G33U C45A | 0.14
117 | G22C A24U U32C | 0.1
118 | G21C A25C C42A G44A | 0.14
119 | G21U G35A G36A | 0.22
120 | G21U G30U C42G C45A | 0.01

Row | Variant | self-cleavage
121 | G21C U28G G44C | 0.53
122 | G21C U28G G44U | 0.19
123 | G21U U28G C37G A39U | 0.01
124 | G21U G27A C37A | 0.4
125 | G21C C37A C45A | 0.01
126 | G22A A24G G30C C46A | 0.18
127 | G21U G33C G40U | 0.02
128 | G22A C31U U32C | 0.1
129 | G22A U32C G36A U43C | 0.03
130 | G21C U38A A41G | 0.1
131 | G21U A24G G30A G36U | 0.07
132 | G21U A26U U34G G35U | 0.06
133 | G21U U32G C46A | 0.06
134 | G21U C37G G40C | 0.08
135 | G22A U34G G44U | 0.03
136 | G22A G36C G40C U43A | 0.02
137 | G22A C23A A39C | 0.05
138 | G21U A25U G30U C37U | 0.03
139 | G21C G22U A25C G27U | 0.95
140 | G22A U28C C42U | 0.05
141 | G21U U34C G40A | 0.04
142 | G22A G29C U34G C42A C45G | 0.01
143 | G22A C23U A25G G40U | 0.15
144 | G22C C31U U34C | 0.03

Row | Variant | self-cleavage
145 | G21U G29U C37G A41U | 0.04
146 | G21U G30U C31A | 0.02
147 | G21A U34C A39U | 0.11
148 | G22C A24U G44U C46U | 0.01
149 | G22A G30A U34A G35A A41U | 0.09
150 | G21U G35U C46U | 0.12
151 | G21C G36C C37G | 0.02
152 | G21A U28G G30C U43G G44C | 0.26
153 | G22C A24U C37U G44A | 0.01
154 | G22A G40A C45G | 0.03
155 | G22A C42G C46U | 0.01
156 | G21C C23A A26U U32A U43A | 0.18
157 | G21U A41C C42U | 0.05
158 | G22A A39U C42U | 0.13
159 | G22A A24C U38A | 0.28
160 | G22C C37A C46U | 0.02
161 | G22C G27A G33U U38C C46U | 0.03
162 | G21C G40C C42G C45G | 0.04
163 | G22A G35A C42U | 0.15
164 | G21C G40U C45G | 0.05
165 | G21U U38C C42U | 0.28
166 | G21A G44U C45G | 0.37
167 | G21C C23A A26C G27C G44A C46A | 0.06
